Test results: PubChem BioAssay (Tox21)
“And” between values parts separate entries of the source, which are not always exact repeats. Equal values may be shown once. The inconclusive results got no clear call from the source; some entries with a clear call stand among them for comparison. Potencies of inconclusive entries are doubtful fits and often do not repeat. The source made the active and inactive calls. The call rests on the fitted dose curve; in most records, active means well fitted cell-killing curve with a large enough effect in the repeat runs; inconclusive means weak or mixed curves, or effect the other way; inactive means no such curve, though single readings can be large or run the other way.
On the % scale 0 is the no-effect control and ±100 the full control effect; potency means the concentration at half of the fitted maximal effect; tags describe the fitted curve by direction and shape.

Test: qHTS assay to identify small molecule antagonists of the thyroid receptor (TR) signaling pathway - cell viability counter screen (AID 743064); further: nearly all actives have a fitted effect of over 50% in size
Conditions: GH3.TRE-Luc viability, CellTiter-Fluor, 24 h; activity change, negative = cytotoxic: at 70.3 µM (top of the series) unless noted
Method in brief: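 GH3.TRE-Luc rat pituitary cells dosed after 4 hr plating, co-stimulated with T3 at 1 nM final, incubated 23.5 h at 37 C. Viability measured in the same wells by CellTiter-Fluor fluorescence after 30 min further at 37 C.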
For CC(C)(C)c1cc(Cc2cc(C(C)(C)C)c(O)c(C(C)(C)C)c2)cc(C(C)(C)C)c1O, the Potency was “inactive”.
With Cc1cc(C2(c3cc(C)c(O)cc3C)OS(=O)(=O)c3ccccc32)c(C)cc1O the Potency was active: 54.5 µM.
For Cc1ccnc2c1NC(=O)c1cccnc1N2C1CC1, the Potency was inconclusive: 25.3 µM [rising, single point].
With Cc1cc(NS(=O)(=O)c2ccc(N)cc2)no1 the Potency was inconclusive: 13.3 µM [cytotoxic, single point].
For c1cc(C(c2ccc(OCC3CO3)cc2)C(c2ccc(OCC3CO3)cc2)c2ccc(OCC3CO3)cc2)ccc1OCC1CO1 (stereo not drawn), the Potency was inconclusive: 31.8 µM [cytotoxic, partial curve] and active: 48.5 µM.
In the case of CS(=O)(=O)OCCCCOS(C)(=O)=O, the Potency was inconclusive: 21.8 µM [rising, partial curve] and the activity change, negative = cytotoxic was inconclusive: 30.1%.
With Cc1cc(C)nc(NS(=O)(=O)c2ccc(N)cc2)n1 the Potency was inconclusive: 2.98 µM [rising, single point].
With O=C(O)CCCCC(=O)O the Potency was “inactive”.
For OC[C@@H](O)[C@@H](O)[C@H](O)[C@@H](O)CO, the Potency was inconclusive: 58.5 µM [rising, partial curve, poor fit].
With OCC#CCO the Potency was inconclusive: 27.3 µM [cytotoxic, single point].
With FC(F)(F)c1ccccc1Cl the Potency was inconclusive: 70.3 µM [rising, single point].
In the case of Nc1cc(=O)[nH]c(N)n1, the “activity change, negative = cytotoxic” value was inactive: -3.05%.
For CCCCCCCC/C=C\CCCCCCCC(=O)OC, the Potency was inconclusive: 27.3 µM [rising, single point].
With COc1cccc(N)c1 the “activity change, negative = cytotoxic” value was inactive: -2.96% [at 95 µM].
In the case of CCCC(CCC)C(=O)O, the Potency was inconclusive: 20.4 µM [rising, partial curve].
In the case of CC(=O)/C(C)=C/C1C(C)=CCCC1(C)C (stereo not drawn), the “activity change, negative = cytotoxic” value was inactive: 0.174%.
In the case of CC1=CCC(=C(C)C)CC1, the Potency was inconclusive: 21.7 µM [rising, partial curve].
For O=C(Nc1cccc2c(=O)cc(-c3nn[nH]n3)oc12)c1ccc(OCCCCc2ccccc2)cc1, the “activity change, negative = cytotoxic” value was inactive: -8.84%.
With CN1C(=O)OC(C)(C)C1=O the Potency was inconclusive: 0.0285 µM [rising, full curve, poor fit].
In the case of Cc1occc1SSc1ccoc1C, the Potency was inconclusive: 68.6 µM [cytotoxic, single point].
With CC(=O)N[C@@H](CS)C(=O)O the Potency was inconclusive: 68.5 µM [rising, single point].
With CN1CCC[C@H]1c1cccnc1 the Potency was inconclusive: 24.3 µM [rising, single point].
In the case of CCCCCCCC/C=C\CCCCCCCC(=O)OCC, the Potency was inconclusive: 0.969 µM [rising, single point].
With COc1ccc(C(=O)NCc2ccc(OCCN(C)C)cc2)cc1OC the activity change, negative = cytotoxic was inconclusive: 31.3%.
In the case of CCOC(=O)c1ccc(I)cc1, the Potency was inconclusive: 2.46 µM [rising, single point].
For CCCCCCCCC=O, the “activity change, negative = cytotoxic” value was inactive: 15.8%.
In the case of CCO[Si](CCCNC(N)=O)(OCC)OCC, the Potency was inconclusive: 77 µM [cytotoxic, single point].
